Consider six substances from PMC3342948.

Amino acid sequences for entries named in this document (tags omitted). A change or cut given only in a name is not applied to a line headed by its entry. Chains listed by the source or under a name are the forms on record and can include a tag or linker. Residues count along the entry.
UniProt P25490: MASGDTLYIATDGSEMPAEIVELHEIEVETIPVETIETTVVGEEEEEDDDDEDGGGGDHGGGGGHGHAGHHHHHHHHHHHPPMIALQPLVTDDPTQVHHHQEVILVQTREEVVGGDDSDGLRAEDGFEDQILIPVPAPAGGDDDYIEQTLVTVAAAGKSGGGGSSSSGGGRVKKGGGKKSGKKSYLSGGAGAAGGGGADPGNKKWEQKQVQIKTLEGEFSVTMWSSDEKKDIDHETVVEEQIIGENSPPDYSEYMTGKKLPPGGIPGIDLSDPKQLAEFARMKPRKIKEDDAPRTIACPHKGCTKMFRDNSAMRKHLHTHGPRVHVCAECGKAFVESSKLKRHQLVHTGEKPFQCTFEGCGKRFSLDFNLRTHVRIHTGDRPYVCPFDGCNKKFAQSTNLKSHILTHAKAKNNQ
YY1 C-terminal domain (a.a. 251-414), Flag-tagged: residues 251-414 of P25490
YY1 C-terminal domain (amino acid 251-320), Flag-tagged: residues 251-320 of P25490
UniProt Q14209: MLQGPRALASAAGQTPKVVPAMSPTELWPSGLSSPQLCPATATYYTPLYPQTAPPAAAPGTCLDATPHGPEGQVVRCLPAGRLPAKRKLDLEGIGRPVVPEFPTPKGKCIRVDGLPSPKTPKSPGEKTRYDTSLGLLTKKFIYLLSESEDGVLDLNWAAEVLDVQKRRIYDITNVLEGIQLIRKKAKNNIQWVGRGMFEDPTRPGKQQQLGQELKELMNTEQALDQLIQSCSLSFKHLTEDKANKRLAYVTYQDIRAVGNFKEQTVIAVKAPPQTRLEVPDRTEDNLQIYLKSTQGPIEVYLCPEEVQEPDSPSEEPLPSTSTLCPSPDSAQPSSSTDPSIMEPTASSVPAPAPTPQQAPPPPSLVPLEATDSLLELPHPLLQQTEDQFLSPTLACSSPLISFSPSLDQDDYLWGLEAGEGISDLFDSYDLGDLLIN
E2F3b (O00716, form named): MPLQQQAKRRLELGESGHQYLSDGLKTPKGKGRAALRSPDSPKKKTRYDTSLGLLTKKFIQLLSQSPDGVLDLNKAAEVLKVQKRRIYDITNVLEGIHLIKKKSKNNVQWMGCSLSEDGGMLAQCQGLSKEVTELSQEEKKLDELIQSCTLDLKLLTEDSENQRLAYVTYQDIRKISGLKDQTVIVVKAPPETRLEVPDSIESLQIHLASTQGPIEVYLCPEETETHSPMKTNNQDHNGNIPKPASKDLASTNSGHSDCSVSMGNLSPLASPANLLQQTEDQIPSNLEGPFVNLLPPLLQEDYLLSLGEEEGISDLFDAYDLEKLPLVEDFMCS
M-MITF central b-HLH-Zip (amino acid 181-300), HA-tagged (O75030, residues 288-407): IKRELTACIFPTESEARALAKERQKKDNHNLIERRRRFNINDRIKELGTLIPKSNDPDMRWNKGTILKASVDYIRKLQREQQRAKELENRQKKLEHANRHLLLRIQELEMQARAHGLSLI
M-MITF smaller b-HLH-Zip domain (amino acid 181-264), HA-tagged (O75030, residues 288-371): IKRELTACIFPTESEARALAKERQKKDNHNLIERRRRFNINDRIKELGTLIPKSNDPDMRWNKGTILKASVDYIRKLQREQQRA
M-MITF C-terminal TAD (amino acid 301-419), HA-tagged (O75030, residues 408-526): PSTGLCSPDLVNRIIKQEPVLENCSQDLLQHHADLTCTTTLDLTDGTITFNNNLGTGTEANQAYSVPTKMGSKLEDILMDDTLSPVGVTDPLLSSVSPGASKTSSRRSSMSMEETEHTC
M-MITF N-terminal TAD (amino acid 1-180), HA-tagged (O75030-9, form named): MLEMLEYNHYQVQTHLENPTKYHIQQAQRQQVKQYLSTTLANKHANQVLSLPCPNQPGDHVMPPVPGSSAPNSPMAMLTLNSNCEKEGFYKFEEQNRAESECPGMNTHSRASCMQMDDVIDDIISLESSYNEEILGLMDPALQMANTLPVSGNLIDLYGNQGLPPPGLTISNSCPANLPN
HA-tagged M-MITF, full length (O75030-9, form named): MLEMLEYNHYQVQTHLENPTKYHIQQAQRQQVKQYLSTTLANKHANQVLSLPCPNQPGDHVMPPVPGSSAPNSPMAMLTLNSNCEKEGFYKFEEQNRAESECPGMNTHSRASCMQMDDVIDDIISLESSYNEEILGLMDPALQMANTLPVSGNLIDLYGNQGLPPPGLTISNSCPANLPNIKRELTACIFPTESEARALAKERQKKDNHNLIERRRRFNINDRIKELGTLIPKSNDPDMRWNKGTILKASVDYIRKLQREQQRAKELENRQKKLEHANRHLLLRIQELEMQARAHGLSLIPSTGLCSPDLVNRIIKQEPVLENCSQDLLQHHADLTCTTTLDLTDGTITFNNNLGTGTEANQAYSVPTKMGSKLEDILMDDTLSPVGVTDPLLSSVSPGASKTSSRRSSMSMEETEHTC
UniProt P19532: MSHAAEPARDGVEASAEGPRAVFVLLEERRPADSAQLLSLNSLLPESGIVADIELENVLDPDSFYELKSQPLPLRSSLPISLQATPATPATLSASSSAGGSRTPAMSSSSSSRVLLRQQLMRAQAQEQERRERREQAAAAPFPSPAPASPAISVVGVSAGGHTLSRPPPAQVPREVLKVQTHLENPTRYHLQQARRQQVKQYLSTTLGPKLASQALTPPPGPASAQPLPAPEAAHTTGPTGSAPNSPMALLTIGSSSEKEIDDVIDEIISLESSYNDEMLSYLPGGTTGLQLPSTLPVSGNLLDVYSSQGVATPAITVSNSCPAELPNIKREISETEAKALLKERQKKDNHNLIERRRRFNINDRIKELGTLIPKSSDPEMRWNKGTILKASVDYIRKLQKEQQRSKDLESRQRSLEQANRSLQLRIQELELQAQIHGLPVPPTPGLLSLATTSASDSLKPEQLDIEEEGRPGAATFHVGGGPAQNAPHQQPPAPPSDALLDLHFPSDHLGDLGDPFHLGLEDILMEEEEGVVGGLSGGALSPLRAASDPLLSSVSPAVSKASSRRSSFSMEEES

Results are given in words; binding and its absence hold for the method and conditions named. Binding seen in cells or lysates may run through a third protein. Some entries that bind do so weakly or less than the wild type.

Test [1] concerns the target Flag-tagged YY1 (Yin Yang 1), full length (human) (UniProt P25490). The test can be described thus: co-IP; expression constructs of full-length or truncated YY1 and M-MITF (Figure 3D, 3E, S3); cells, beads and antibodies not told for these panels.
In a further test the target is E2F2 (UniProt Q14209). The test can be described thus: co-IP; 293T cells co-transfected with the indicated plasmids; total cell lysate immunoprecipitated with anti-Flag M2 agarose beads; western blotting with anti-Flag and anti-HA. In general terms: In western blotting, separated proteins are transferred to a membrane and probed.
For test [2], the target named is Flag-tagged YY1 (Yin Yang 1), full length (human) (UniProt P25490). The description is as above.
A further test deals with E2F3b (UniProt O00716). The description is as above.
Test [3] has as its target YY1 C-terminal domain (a.a. 251-414), Flag-tagged (human) (UniProt P25490). The test can be described thus: co-IP; expression constructs of full-length or truncated YY1 and M-MITF (Figure 3D, 3E, S3); cells, beads and antibodies not told for these panels.
Test [4] addresses YY1 C-terminal domain (amino acid 251-320), Flag-tagged (human) (UniProt P25490). The description is as above.

For the substance “M-MITF smaller b-HLH-Zip domain (amino acid 181-264), HA-tagged (from UniProt O75030-9 181-264) (domain or fragment)”, in test [1], the binding result is reported as “binds”.
As for “M-MITF central b-HLH-Zip (amino acid 181-300), HA-tagged (from UniProt O75030-9 181-300) (domain or fragment)”, in test [1], the binding entry is reported as “binds”.
In the case of “HA-tagged TFE3 (from UniProt P19532 1-575)”, the binding result with E2F2 is “no binding”; in test [2], “binds”; with E2F3b, “binds”.
Turning to “M-MITF N-terminal TAD (amino acid 1-180), HA-tagged (from UniProt O75030-9 1-180) (domain or fragment)”, the binding result in test [1] is “binds”.
As to “HA-tagged M-MITF, full length (from UniProt O75030-9 1-419)”, the binding result in test [1], in test [3], in test [4] and in test [2] was “binds” each time.
As to “M-MITF C-terminal TAD (amino acid 301-419), HA-tagged (from UniProt O75030-9 301-419) (domain or fragment)”, in test [1], the binding entry is “no binding”.
